38 variants from the RNAGym collection of RNA variant scans (doi:10.1073/pnas.2313332121) can be followed below.

This sample is rich in variants without activity.

The labels stand for the following.
B1: TPR 5TU (parent)
chain: GGAUCUUCUCGAUCUAACAAAAAAGACAAAUCUGCCACAAAGCUUGAGAGCAUCUUCGGAUGCAGAGGCGGCAGCCUUCGGUGGCGCGAUAGCGCCAACGUUCUCAACUAUGACACGCAAAACGCGUGCUCCGUUGAAUGGAGUUUAUCAUG

Variants of B1 are the subject of the data set. The data set can be described thus: polymerase ribozyme fitness, log enrichment relative to wild type (log ratio); higher = more active; in vitro selection for triplet polymerase activity. An outline of the steps: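 Frozen incubation at −7 °C formed the core of a single, triplicate in vitro selection round applied to PCR-built, transcribed mutant libraries of each subunit of a heterodimeric triplet polymerase ribozyme. Extended constructs were gel-excised, captured with streptavidin beads and amplified by RT-PCR, and input and output libraries were Illumina-sequenced with a filter of ≥10 input reads and ≥1 read per output. Fitness is the logarithm of genotype enrichment relative to wild-type enrichment, with inverse-variance-weighted replicate averaging, and the logarithm is base 2.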
With GGAUCUUCUCGAUCUAAUAAAAAAGACAAAUCUGCCACACAGCUUGAGAGCAUCUUCGGAUGCAGAGGCGGCAGCCUUCGGUGGCGCGAUAGAGCCAACGUUCUCAACUAUGACACGCAAAACGCGUGCUCCGUUGAAUGGAGUUUAUCAUG, the “polymerase ribozyme fitness (log ratio)” value is -2.24.
As to GGAUCUUCUCGAUCUAAUAAAAAAGACAAAUCUGCAACAAAGCUUGAGAGCAUCUUCGGAUGCAGAGGCGGCAGCCUUCGGUGGCGCGAUAGCGACAACGUUCUCAACUAUGACACGCAAAACGCGUGCUCCGUUGAAUGGAGUUUAUUACG, the “polymerase ribozyme fitness (log ratio)” value was no more than -4.2.
For GGAUCUUCUCGAUCUAAUAAAAAACACAAAUCUGCCACAAAGCUUGAGAGCAUCUUCGUAUGCAGAGGCGACAGCCGUCGGUGGCGCGAUAGCCUCAACGUUCUCAACUAUGACACGCAAACCGCGUGCUCCGUUGAAGGGAGUUUAUCAUG, the “polymerase ribozyme fitness (log ratio)” value is no more than -4.2.
Then GGAUCUUCUCGAUCUAAUAAAAAAGACAAAUCUGCCAUCAAGCUUGAGAGCAUCUUCGGAUGCAGAGGCGGCAGCCUUCGGUGGCGCGAUAUCGCCAACGUUUUCAACUAUGACACGCAAAACGCGUGCUCCGUUGAAUGGAGUUUAUCAUG, with no more than -4.2.
On to GGAUCUUCUCGAUCUAAUAAAAAAGACAAAUCUGCCACAAAGCUUGAGAGCAUCUUCAGAUGCAGAGGCGGCAGGCUUCGGUGGCGCGAUAGUGCCAACGUUCUCAACUAUGACACGCAAAACGCGUGCUCCGUUGAAUGGAGAUUAUCAUG, for which the “polymerase ribozyme fitness (log ratio)” value is no more than -4.2.
Turning to GGAUCUUCUCGAUCUAAUAAAAAAGACAACUCUGCCACAAAGCUUGAGAGCAUCUACGGAUGCAGAGGCGGCAGCCUUCGGUGGCGCGAUAGCGCCAACGUUCUCAACUAUGACACGCAAAACGCGUGCUCCGUUGAAUGGAGUUUAGCAUG, the “polymerase ribozyme fitness (log ratio)” value was no more than -4.2.
Then GGAUCUUCUCGAUCUAAUAAAAAAGACAAAUCUGCCACAAAGCUUGAGAGCAUCUUCGGAUGCAGAGGCGGCAGCCUUCGGUGGUGCGAUAGCGCCAACGUUCUCCACUAUGACACGCAAAACGCGUGCACCGUUGAAUGGAGUUUAUCAUG, with no more than -4.2.
With GGAUCUUCUCGAUCUAAUAAAAAAGACAAAUCUGCCACGAAGCUUGAGAGCACCUUCGGAUGCAGAGGCGGCAGCCUUCGGUGGCGCGAUAGCGCCAACGUUCUCAACUAUGACACGCAAAACGCGUGCUCCGUUGAAUGGAGUUUAUCAUG, the “polymerase ribozyme fitness (log ratio)” value was -3.19.
Then GGAUCUUCUCGAUCUAAUAAAAAAGACAAAUCUGCAACAAAGCUUGAGAGCAUCUUCGGAUGCAGGGGCGGCAGCCUUCGUUGGUGCGAUAGCGCCAACGCUCUCAACUAUGACACGCAAAACGCGUGCUCCGUUGAAUGGAGUUUAUCAUG, with no more than -4.2.
Then GGAUCUUCUCGAUCUAAUAAAAAAGACAAAUCUGCCACAAAGCUUGAGAGCAUGUUCGGAUGCAGAGGCGGCAGCCUUCGGUGGCGCGAUAGCGCCAACGUUCUCAACUAGGACACGCAAAACGCGUGCUCCGUUGAAUGGAGUUUAUCAUG, with no more than -4.2; and GGAUCUUCUCGAUCUAAUAAAAAAGACAAUUCUGCCACAAAGCUUGAGAGCAUCAUCGGAUACAGAGGCGGUAGCCUUCGGUGGCUCGAUAGCGCCAACGUUCUCAACUAUGACACGCAAAACGCGUGCUCCGUUGAAUGGAGUUUAUCAUG, with no more than -4.2; and GGAUCUUCUCGAUCUAAUAAAAAAGACAAAUCUGCCACAAAGCUUGAGAGCAUCUUCGGAUGCACAGGCGGCAGCCUUCGGUGGCGCGAUAGUGCCAACGUUCUCAACUAUGACACGCAAAACGCGUGCUCCGUUGAAUGGAGUUUAGCAUG, with no more than -4.2.
In the case of GGAUCUUCUCGAUCUAAUAAAAAAGACAAAUCUGCCACAAAGCUUGAGACCAUCUUCGGAUGCAGAGGCGGCAGCCUUCGGUGGCGCCAUAGCGCCAAUGUUCUCAACUAUGACACGCAAAACGCGUGCUCCGUUGAAUGGAGUUUAUCAUG, the “polymerase ribozyme fitness (log ratio)” value is no more than -4.2.
For GGAUCUUCUCGAUCUAAUAAAAAAGACAAGUCUGCCACAAAGCUUGAGAGCAUCUUCGGAUGCAGAGGCGGCAGCCUUCGGUGGCACGAUAGCGCCAACGUUCUCAACUAUGACACGCAAAACGCGUGCUCCGUUGAAUGGCGUUUAUCAUG, the “polymerase ribozyme fitness (log ratio)” value was no more than -4.2.
For GGAUCUUCUCGAUCUAAUAAAAAAGACAAAUCUGCCACAAAGCUUGAGAGCAUCUUCGGAUGCAGAGGCGGCAGCCUUCUGUGGCGCGAUAGCGCCAACGUUCUCAACUAUGACACGCAAAACGCGUGCUCCGUUGAAUGGAGUUUACCAUG the value was -3.99; for GGAUCUUCUCGAUCUAAUAAAAAAGACAAAUCUGCCACAAAGCUUGAGAGCCUCUUCGGAUGCAGAGGCGGCAGCCUUCGGUGGCGCGACAUCGCCAAUGUUCUCAACUAUGACACGCAAAACGCGUGCUCCGUUCAAUGGAGUUUAUCAUG, no more than -4.2.
GGAUCUUCUCGAUCUAAUAAAAAAGACAAAUCUGCCACAAAGCUUGAGAGCAUGUUCGGAUGCAGAGGCAGCAGCCUUCGGUGGCGCGAUAACGCCAACGUUCUCAACUAUGACACGCAAAACGUGUGCUCCGUUGAAUGGAAUUUAUAAUG: the “polymerase ribozyme fitness (log ratio)” value was no more than -4.2.
On to GGAUCUUCUCGAUCUAAUAAAAAAGACAAAUCUGCCACGAAGCUUGAGAGCACCUUGGGAUGCAGAGGCGGCAGACUUCGGUGGCGCGAUAGCGCCAACGUUCUCAACUAUGACACGCAAAACGCGUGCUCCGUUGAAGGGAGUUUAUCCUG, for which the “polymerase ribozyme fitness (log ratio)” value is no more than -4.2.
Then GGAUCUUCUCGAUCUAAUAAAAAAGACAAAUCUGCCACAAGGCUUGAGAGUAUCUUCGGAUGCAGAGGCGGCAGCCUUCGGUGGCGCGAUAGCGCCAACGUUCUCAACUAUGACCCGCAAAACGCGUGCUCCGUUGAAUUGAGUUUAUCAUG, with -3.82; and GGAUCUUCUCGAUCUAAUAAAAAAGACAAAUCUGCCACAAAGCUUGAGAGCAUCUUCGGAUGCAGAGGCGGCAGCCUUCGGUGGCGGGAUAGCGCCAACGUUCUCAACUAUGACACGCAAAACGCGUGCUCCGUUGAAUGGAGUUUAUCAUG, with no more than -4.2; and GGAUCUUCUCGAUCUAAUAAAAAAGACAAAUCUGCCACAAAGCUUGAGACCAUCUUCGUAUGCAGAGGCGGCAGCCUUCGGUGGCGCGAUAGUGGCAACGUGCUCAACUAUGACACGCAAAACGCGUGCUCCGUAGAAUGGAGUUUAUCAUG, with no more than -4.2.
As for GGAUCUUCUCGAUCUAAUAAAAAAGACAAAUCUGCCACAAAGCUUGAGAGCAUCUUCGGAUGCAGAGGCGGCAGCCUUCGGUAGCGCGAUAGCGCCAACGUUCUCAACUAUGACACGCAAAACGCGUGCUCCGUUGAAUGGAGUUUAUCAUG, the “polymerase ribozyme fitness (log ratio)” value was -0.637.
For the variant GGAUCUUCUCGAUCUAAUAAAAAAGACAAAUCUUCCACAAAGCUUGAGAGCAUCUUCGGAUGCAGAGGCAGCAGCCUUCGGUGGUGUGAUCGCGCCAACGUUCUCAACUAUGACACACAAAACGCGUGCUCCGUUGAAUGGAGUUUAUCAUG, the “polymerase ribozyme fitness (log ratio)” value was no more than -4.2.
For the variant GGAUCUUCUCGAUCUAAUAAAAAAGACAAAUCUGCCACAAAGCUUGAGAGCAUCUUCGGAUGCAGAGGCGGCAGCCUUCGGUGGCGGGAUAGCGCCAAAGUUCUCAACUAUGACACGCAAAACGCGUGCUCCGUUGCAUGGAGUUUAUCAUG, the “polymerase ribozyme fitness (log ratio)” value was no more than -4.2.
Then GGAUCUUCUCGAUCUAAUAAAAAAGACAAAUCUGCCACAAAGCUUGAGUGCAUCUUGGGCUGCAGAGGCGGCAGCCUUCGGUGGCGCGAUAGCGCUAACGUUCUCAACUAUGACUCGCAAAACGCGUGCUCCGUGGAAUGGAGUUUAUCAUG, with no more than -4.2; and GGAUCUUCUCGAUCUAAUAAAAAAGACAAAUCUGCCACAAAGCUUGAGAGCAUCUUCGGUUGAAGAGGCGGCAGCCUUCGGUGACGCGAUAGCGCCAACGUUCUCAACUAUGACACGCAAAACGCGAGCUCCGUUGAAUGGAGUUUAUCAUG, with no more than -4.2; and GGAUCUUCUCGAUCUAAUAAAAAAGACAAAUCUGCCACAAAGCUUGAGAGCAUCUUCGGAUGCAGAGGCGGCAGGCUUCGGUGGCGCGACAUCGCCAACGUUCUCAACUAUGACACGCAAAACGCGUGCUCUGUUGAAUGGAGUUUAUCGUG, with no more than -4.2.
Regarding GGAUCUUCUCGAUCUAAUAAAAAAGACAAAUCUUCCACAAAGCUUGAGAGCAUCUUCGCAUGCAGAGACGGCAGCCUUCGAUGGCGCGAUAGCGCCAACGUUCUCAACUAUGACACGCAAAACGCGUGCUCCGUUGAAUGAAGUUUAUCAUG, the “polymerase ribozyme fitness (log ratio)” value was no more than -4.2.
Then GGAUCUUCUCGAUCUAAUAAAAAAGACAAUUCUGCCACAAAGCUUGAGAGCAUCUUCGGAUGCAUAGGCGGCAGCCUUCGGUGUCGCGAUAGCGCCAACGUUCUUAACUAUGACACGCAAAACGCGUGCUCCGUUGAAUGGAGUUUAUCAUG, with no more than -4.2; and GGAUCUUCUCGAUCUAAUAAAAAAGACAAAUCUGCCACAAAGCUUGAGAGCAUCUUCGUAUGCAGAGGCGGCAGCUUUCGGUGGUGCCAUAGCGCCAACGUUCUCAAUUAUGACACGCAAAACGCGUGCUCCGUUGAAUGGAGUUUAUCAUG, with no more than -4.2.
GGAUCUUCUCGAUCUAAUAAAAAAGACAAAUCUGCCACAAAGCUUGGGAGCUUCUUCGGAUGCAGAGUCGGCAGCCUUAGGUGGCGCGAUAGUGCCAAAGUUCUCAACUAUGACACGCAAAACGCGUGCUCCGUUGAAUGCGUUUUAUCAUG: the “polymerase ribozyme fitness (log ratio)” value was no more than -4.2.
As for GGAUCUUCUCGAUCUAAUAAAAAAGACAAAUCUGCCCCAAAGCUUGAGAGCAUCUUCGGAUGCAGAGACGGCAGCCUUCGGUGGCGCGAUAGCGCCAACGUUCUCAUCUAUGACACGCAAAACGAGUGCUCCGUUGAAUCGAGUUUAUCAUG, the “polymerase ribozyme fitness (log ratio)” value was no more than -4.2.
Then GGAUCUUCUCGAUCUAAUAAAAAAGACAAAUCUGCCAUAAAGCUUGAGAGCAUCUUCGGAUGCAGAGGCGGCAGCCUUCGGUGGCGGGAUAGCGCCAAUGUUCUGAACUAUGACACGCAAAACGCGUGCUCCGUUGAAUGGAGUUUAUCAUG, with no more than -4.2; and GGAUCUUCUCGAUCUAAUAAAAAAGACAAAUCUGCCACAAAGCUUGAGAGCAUCUUCGGAUGCAGAGGCGGCAGCCUUCGGUGGCGCGAUAGCGCCAACGUUCUCAACUAUGACACGCAAAACGCGUGCUACGUUGAAUGGAGUUUAUCAUG, with -2.6.
In the case of GGAUCUUCUCGAUCUAAUAAAAAAGACAAAUCUGCCACUAAGCUUGAGAGCAUCUUCGGAUGCAGAGGCGGCAGCCUUCGGUGGCGCCAUAGCGACGACGUUCUCAACUAUGACACGCAAAACGAGUGCUCCGUUGAAUGGAGUUUAUCAUG, the “polymerase ribozyme fitness (log ratio)” value was no more than -4.2.
For GGAUCUUCUCGAUCUAAUAAAAAAGACAUUUCUGCCACAAAGCUUGAGAGCAUCUUCGGAUGCAGAGGCCGCAGCCUUCGGUGGCGCGAUAGCGCCAACGUUCUCAACUAUGACACGCAAAACGCGUGCUCCGUUGAAUGGAGUUUAUGAUG the value was no more than -4.2.
Then GGAUCUUCUCGAUCUAAUAAAAAAGACAAAUCUGCCACAAAGCUUGAGAGCAUCUUCGGAUGCAGAGGCGGUAGCCUGCGGUGGCGCGAUAGCGCCAACGUUCUCAACUAUGACACGCAAAACGCGUUCUCCGUUGAAUGGAGUUUAUCAUG, with no more than -4.2.
With GGAUCUUCUCGAUCUAAUAAAAAAGACAAAUCUGCCACAAAGCUUGAGAGCAUCUUCGGAUGCAGAGGCGGCAGCCUUCGGUGGCGCGAUAGCGCCAACGUUCUCGACUAUGACACGCAAAACGCGUGCUCCUUUGAAUGGAGUUUAUCAUG, the “polymerase ribozyme fitness (log ratio)” value was no more than -4.2.
